# Data: the supplement of paper PMC5740061
# The other results are listed elsewhere or left out. Many values rest on one well or one pass, so single values are uncertain.
# B1: TB1G1 variant; numbered along this chain (parent)
# chain: PDEYIERAKECCKKGDIQCCLRYFEESGDPNVMLICLFCP
# Variants of: B1
# Test: TEAD binding enrichment after two sorts vs input, relative to TB1G1 (log2 fold-change); higher = improved TEAD binding
# Settings: with TEAD1 YAP-binding domain (194-411), TEAD concentration: 20 nM, staining: monovalent 2-step
row,Variant,TEAD binding enrichment (log2)
1,Y4N,0.0419
2,Y4G,-2.21
3,Y4R,-0.939
4,Y4M,-0.684
5,Y4A,0.259
6,Y4E,-6.52
7,I5H,-2.99
8,I5G,-3.97
9,M33I,-3.17
10,D2Y,-1.63
11,D2S,-1.01
12,D2F,-3.41
13,D2N,-0.157
14,D2K,-1.07
15,R7M,-1.06
16,R7V,-2.31
17,R7W,-1.28
18,E3D,0.801
19,E3F,0.318
20,E3Y,-0.357

row,Variant,TEAD binding enrichment (log2)
1,E3T,1.19
2,E3S,-0.407
3,P1D,-0.648
4,P1E,1.12
5,P1Q,-0.836
6,P1T,-0.568
7,K9I,-3.03
8,K9T,2.68
9,K9S,-0.907
10,K9A,-1.27
11,K9E,3.95
12,K9Y,-4.96
13,A8W,-5.46
14,A8G,-4.11
15,A8P,-4.7
16,A8I,-8.31
17,A8K,-4.73
18,E6D,-0.602
19,E6K,-1.13
